According to PubChem BioAssay (NCATS):
Several values for one entry are separate records, joined by “and”; a condition that tells them apart may be missing. Identical values can stand only once. The inconclusive results got no clear call from the source; some entries with a clear call stand among them for comparison. For part of these data: Potencies of inconclusive entries are doubtful fits and often do not repeat. Some structures have more than one record in an assay (separate samples or runs), and their calls can disagree. Activity calls are given as the source filed them. Unless noted, the call rests on the fitted dose curve; in most records, active means well fitted curve in the direction sought with a large enough effect; inconclusive means small, poorly fitted or top-dose-only effect, or another doubt; inactive means no such curve, though single readings can be large; an effect the other way counts as inactive or inconclusive.

Key:
[1] = P-glycoprotein substrates identified in KB-8-5-11 adenocarcinoma cell line, qHTS therapeutic library screen (AID 1346987); further: nearly all actives have a fitted effect of over 65% in size
How it was run: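 P-gp-mediated resistance screen: KB-8-5-11 cells treated 72 h with compounds in dose-response. CellTiter-Glo viability.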

[2] = tested on: HEK293; test: Cytotoxic Profiling of Annotated Libraries Using Quantitative High-Throughput Screening (AID 1296008); conditions: Five cell lines viability, CellTiter-Glo ATP luminescence, 48-72 h; max response: hits give low values; further: nearly all actives have a fitted effect of over 60% in size; on max response: on the % scale 0 is the no-effect control and ±100 the full control effect
How it was run: (§1)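 Cytotoxicity was measured as CellTiter-Glo ATP luminescence, read after 10 min at room temperature. Compound treatment of the cells lasted 48 or 72 hr at 37 degrees Celsius in a qHTS format.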

[3] = tested on: KB-3-1; test: as above; conditions: Five cell lines viability, CellTiter-Glo ATP luminescence, 48-72 h; max response: hits give low values
How it was run: as §1

[4] = tested on: NIH3T3; test: as above; conditions: Five cell lines viability, CellTiter-Glo ATP luminescence, 48-72 h; max response: hits give low values
How it was run: as §1

[5] = tested on: C33A; test: Primary qHTS to identify gynecologic anti-cancer compounds using libraries of approved drugs and bioactive compounds (AID 1345084); conditions: Gynecologic cancer cell panel viability, ATPlite luminescence, 48 h; series mostly up to 57.5 µM; further: nearly all actives have a fitted effect of over 55% in size
How it was run: (§2)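 Cells, 1,000 per well, were allowed to settle for 16 h at 37 C before compound addition. Five concentrations were tested for 48 h, and viability was read by ATPlite luminescence after 15 min at room temperature.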

[6] = tested on: CAOV3; test: as above; conditions: Gynecologic cancer cell panel viability, ATPlite luminescence, 48 h; series mostly up to 57.5 µM
How it was run: as §2

[7] = tested on: CASKI; test: as above; conditions: Gynecologic cancer cell panel viability, ATPlite luminescence, 48 h; activity change, negative = cytotoxicity: at 57.5 µM (top of the series)
How it was run: as §2

[8] = tested on: HeLa; test: as above; conditions: Gynecologic cancer cell panel viability, ATPlite luminescence, 48 h; series mostly up to 57.5 µM
How it was run: as §2

[9] = tested on: Hek293T; test: as above; conditions: Gynecologic cancer cell panel viability, ATPlite luminescence, 48 h, control line for the selectivity index; series mostly up to 57.5 µM
How it was run: as §2

[10] = tested on: OV90; test: as above; conditions: Gynecologic cancer cell panel viability, ATPlite luminescence, 48 h; series mostly up to 57.5 µM
How it was run: as §2

[11] = tested on: PA-1; test: as above; conditions: Gynecologic cancer cell panel viability, ATPlite luminescence, 48 h; series mostly up to 57.5 µM
How it was run: as §2

[12] = tested on: SKOV3; test: as above; conditions: Gynecologic cancer cell panel viability, ATPlite luminescence, 48 h; series mostly up to 57.5 µM
How it was run: as §2

[13] = tested on: Tov-21-G; test: as above; conditions: Gynecologic cancer cell panel viability, ATPlite luminescence, 48 h; activity change, negative = cytotoxicity: at 57.5 µM (top of the series)
How it was run: as §2

[14] = tested on: Tov112D; test: as above; conditions: Gynecologic cancer cell panel viability, ATPlite luminescence, 48 h; activity change, negative = cytotoxicity: at 57.5 µM (top of the series)
How it was run: as §2

[15] = tested on: Zika virus NS2B-NS3 protease (unlinked complex); test: Primary screen GU Rhodamine qHTS for Zika virus inhibitors: Unlinked NS2B-NS3 protease assay (AID 1347159); further: nearly all actives have a fitted effect of over 60% in size
How it was run: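 A qHTS format was used, with compound concentrations ranging up to 114 microM. Each compound was preincubated with 25 nM NS2B-NS3 protease, and the substrate was then added at 1.5 microM. Curves were fitted with a 4-parameter Hill model.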

[16] = Primary qHTS for inhibitors of nuclear receptor binding SET domain protein 2 (NSD2) in an isogenic RCH-ACV NSD2 p.E1099K mutant (9B) (AID 1645876); further: nearly all actives have a fitted effect of over 70% in size
[17] = Primary qHTS for inhibitors of nuclear receptor binding SET domain protein 2 (NSD2) in an RCH-ACV wild type WT cells (2C) (AID 1645877); conditions: activity change, negative = cell killing: at 44.9 µM (top of the series); further: nearly all actives have a fitted effect of over 70% in size; on activity change, negative = cell killing: on the % scale 0 is the no-effect control and ±100 the full control effect
[18] = biological target: Cytochrome P450 2D6 (Homo sapiens) (UniProt P10635); test: Cytochrome P450 family 2 subfamily D member 6 (CYP2D6) small molecule antagonists: luciferase biochemical (cell-free) qHTS assay (AID 1645840; active means well fitted curve in the direction sought with a large enough effect in the repeat runs; inconclusive means weak or mixed curves; inactive means no such curve, though single readings can be large; an effect the other way counts as inactive or inconclusive; further: nearly all actives have a fitted effect of over 55% in size)
How it was run: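 P450-Glo luminescent screen: recombinant CYP2D6 enzyme–proluciferin substrate mix preincubated with compound 10 min at room temperature, then NADPH regeneration added for 1 h at room temperature. Detection reagent added for 20 min; luciferin light read as relative luminescence units.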

[19] = Primary fluorescence-based thiol-reactive (MSTI) qHTS assay for identification of artifact compounds. (AID 1845221);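 further: thiol-reactive compounds lower the probe fluorescence signal; nearly all actives have a fitted effect of over 65% in size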
How it was run: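 qHTS titration of compound; 4 uM MSTI, PBS pH 7.4, 2% DMSO; 1 h RT, dark; fluorescence 525/598 nm; normalized to Acetyl-MSTI and MSTI; 4-parameter Hill fit.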

[20] = tested on: HaCat; test: Cytotoxic Profiling of Annotated Libraries Using Quantitative High-Throughput Screening (AID 1296008); conditions: Five cell lines viability, CellTiter-Glo ATP luminescence, 48-72 h; max response: hits give low values; further: nearly all actives have a fitted effect of over 60% in size; on max response: on the % scale 0 is the no-effect control and ±100 the full control effect
How it was run: as §1
Potency means the concentration at half of the fitted maximal effect; tags describe the fitted curve by direction and shape.

UniProt P10635, sequence (P10635 whole entry, looked up): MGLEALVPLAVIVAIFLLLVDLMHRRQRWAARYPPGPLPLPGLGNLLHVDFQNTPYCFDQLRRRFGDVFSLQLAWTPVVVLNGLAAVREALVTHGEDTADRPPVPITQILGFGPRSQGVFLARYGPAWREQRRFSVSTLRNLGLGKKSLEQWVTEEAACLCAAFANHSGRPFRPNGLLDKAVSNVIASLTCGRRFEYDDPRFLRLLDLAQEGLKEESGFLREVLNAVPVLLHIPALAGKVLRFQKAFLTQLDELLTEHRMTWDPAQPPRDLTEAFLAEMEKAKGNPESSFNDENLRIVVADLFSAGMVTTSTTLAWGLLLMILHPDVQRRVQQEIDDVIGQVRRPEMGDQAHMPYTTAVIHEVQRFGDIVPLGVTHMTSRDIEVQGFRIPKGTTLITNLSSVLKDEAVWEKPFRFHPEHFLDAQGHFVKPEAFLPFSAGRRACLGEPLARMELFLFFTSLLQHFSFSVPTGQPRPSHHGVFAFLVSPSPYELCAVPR

C=CC(=O)Nc1cccc(Nc2nc(Nc3ccc(NC4CN(CCF)C4)cc3OC)ncc2C(F)(F)F)c1
active: Potency [2] 8.2 µM | Potency [4] 13 µM | Potency [7] 17.8 µM | Potency [12] 12.6 µM
inconclusive: Potency [1] 18.4 µM [inhibitor, single point] | Potency [3] 20.6 µM [inhibitor, single point] | Potency [5] 28.2 µM [cytotoxic, single point] | Potency [6] 25.1 µM [cytotoxic, single point] | Potency [8] 28.2 µM [cytotoxic, single point] | Potency [9] 39.8 µM [cytotoxic, single point] | Potency [10] 12.6 µM [cytotoxic, partial curve, poor fit] | Potency [11] 31.6 µM [cytotoxic, partial curve, poor fit] | Potency [13] 15.8 µM [cytotoxic, partial curve] | Potency [14] 20 µM [cytotoxic, partial curve]

Cc1cc(C(C#N)c2ccc(Cl)cc2)c(Cl)cc1NC(=O)c1cc(I)cc(I)c1O (stereo not drawn)
inactive: max response [4] -5.52% | outcome [4]
active: Potency [15] 1.78 µM | Potency [2] 23.7 µM
inconclusive: Potency [16] 26.6 µM [inhibitor, single point] and 25.8 µM [inhibitor, single point] | Potency [17] 29.9 µM [inhibitor, single point] and 20.5 µM [inhibitor, single point] | Potency [3] 23.1 µM [inhibitor, partial curve] | Potency [5] 39.8 µM [cytotoxic, single point] | Potency [8] 35.5 µM [cytotoxic, single point] | Potency [9] 39.8 µM [cytotoxic, single point] | Potency [10] 39.8 µM [cytotoxic, single point] | Potency [12] 3.55 µM [rising, full curve]

CC(C)c1cc(-c2ccc(F)c3ccccc23)nc(N)n1
inconclusive: Potency [18] 23.9 µM [inhibitor, single point] | Potency [16] 20.5 µM [inhibitor, single point] | Potency [2] 29.1 µM [inhibitor, single point] | Potency [20] 5.8 µM [inhibitor, full curve]
inactive: Potency [19]

CC1=CCC[C@@H]2[C@](CCc3ccoc3)(C(=O)O)[C@H](C)CC[C@@]12C
inactive: max response [2] -3.43% | max response [20] -10.6%
active: Potency [15] 8.91 µM

CC1(C)C[C@H](O)C[C@@]2(C)OC(=O)C=C12
inactive: Potency [16] | Potency [17] | outcome [2]
inconclusive: Potency [15] 70.8 µM [inhibitor, partial curve, poor fit] | Potency [20] 47.3 µM [inhibitor, single point]
active: Potency [19] 39.8 µM

CCCCCCCCCCCC[N+](C)(C)Cc1ccccc1
inconclusive: Potency [3] 23.1 µM [inhibitor, partial curve, poor fit]
active: Potency [2] 0.841 µM | Potency [4] 6.68 µM | Potency [5] 2.51 µM | Potency [6] 5.62 µM | Potency [7] 2.24 µM | Potency [9] 15.8 µM | Potency [10] 14.1 µM | Potency [12] 3.16 µM

COc1cc(-c2ncn(/C=C\C(=O)OC(C)C)n2)cc(C(F)(F)F)c1
active: Potency [16] 0.129 µM | Potency [2] 0.259 µM | Potency [3] 1.84 µM | Potency [8] 15.8 µM | Potency [11] 0.562 µM
inconclusive: Potency [4] 23.1 µM [inhibitor, single point] | Potency [5] 20 µM [cytotoxic, partial curve, poor fit] | Potency [6] 0.794 µM [cytotoxic, full curve, poor fit] | Potency [7] 14.1 µM [cytotoxic, partial curve, poor fit] | Potency [9] 0.224 µM [cytotoxic, full curve, poor fit] | Potency [10] 0.794 µM [cytotoxic, full curve, poor fit] | Potency [12] 39.8 µM [cytotoxic, single point] | Potency [13] 0.501 µM [cytotoxic, full curve, poor fit] | Potency [14] 3.98 µM [cytotoxic, partial curve]
